Here are results for one compound from patent publication US20150316556A1, “SSEA4 AND ST3GAL2 AS CHEMOTHERAPEUTIC DRUG RESPONSE BIOMARKERS” (Miltenyi Biotech GmbH, priority 2014, published 2015).

The test relates to purely adherent cell line derived from model HBCx-17. The settings on record: purely adherent HBCx-17 derived cell line; increasing concentrations; n=4.

Consider `COc1cccc2c1C(=O)c1c(O)c3c(c(O)c1C2=O)C[C@@](O)(C(=O)CO)C[C@@H]3O[C@H]1C[C@H](N)[C@H](O)[C@H](C)O1` [doxorubicin], for which the “fraction of SSEA4 positive cells in the surviving population” value is on record as “significantly higher fraction of SSEA4 positive cells”.
